According to PubChem BioAssay AID652106 (National Center for Advancing Translational Sciences (NCATS), 2013):
The whole screen tested about 370,000 compounds, of which about 500 (0.14%) were called active. The shares of active, inactive and inconclusive entries below differ from those in the screen. Calls follow the shape of the dose curve; as a rule, active = well fitted activation curve with a large enough effect; inconclusive = small, poorly fitted or top-dose-only effect; inactive = no such curve, though single readings can be large or run the other way. Potencies of inconclusive entries are doubtful fits and often do not repeat.

Assay: qHTS of alpha-syn Inhibitors; also: nearly all actives have a fitted effect of over 65% in size; as to growth rescue (activation): % of control where 0% means no effect
Conditions: Yeast expressing alpha-synuclein, BacTiter-Glo, 24 h; Potency: growth rescue unless noted; growth rescue (activation): at 46.1 µM (top of the series) unless noted
In short: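 Rescue of yeast growth: cells expressing toxic alpha-synuclein, induced in galactose at OD600 0.02, incubated with compound 24 h at 30 C. ATP luminescence quantified growth; inhibitors of toxicity appear as activators.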
Potency is read from the fitted curve at half-maximal effect; tags tell the direction and shape of the fitted curve.

Potency, inconclusive:
CCCc1nnc(NC(=O)CCC(=O)N2CCC(Cc3ccccc3)CC2)s1 0.562 µM [activator, full curve, poor fit]
Cc1cc(OCC(=O)NNC(=S)NC(=O)c2ccc(Br)o2)ccc1Cl 3.16 µM [activator, full curve, poor fit]
CCOC(=O)c1cnc(-c2ccc(C(F)(F)F)cn2)[nH]c1=O 31.6 µM [activator, single point]
Cc1cccc(NS(=O)(=O)c2c(C)nc3scc(C)n3c2=O)c1 5.62 µM [activator, single point]
C[C@@H]1CN([C@H](C)CO)C(=O)c2c(c3ccccc3n2C)-c2ccccc2CO[C@H]1CN(C)C(=O)CCC(F)(F)F 22.4 µM [activator, single point]
Cc1cc(-c2ccc(C)c(S(=O)(=O)Nc3cccc(CN4CCCC4)c3)c2)on1 20 µM [activator, single point]
COC(=O)c1ccc2nc(-c3cccc(Br)c3)c(Cc3cccc(F)c3)n2c1 5.62 µM [activator, single point]
CC(CC(=O)Nc1ccc2c(c1)c(=O)n(C)n2-c1ccccc1)c1ccccc1 (stereo not drawn) 5.62 µM [activator, single point]
Nc1ccc2c(c1)C(=O)c1ccccc1-2 12.6 µM [activator, partial curve]
CCO[C@@H]1OC(C(=O)Nc2ccccc2)=C[C@H](c2csc3ccccc23)[C@H]1CCCO 35.5 µM [activator, single point]
O=C(CN1CCN(C(=O)C2COc3ccccc3O2)CC1)Nc1ccccc1 (stereo not drawn) 35.5 µM [activator, single point]
CNc1nc2c(C)cccn2c(=O)c1C=NCc1ccccc1 20 µM [activator, single point]
COC(=O)[C@@]12C[C@@H](CC(=O)NCCc3ccccc3OC)C(=O)N(Cc3cccc4ccccc34)C1=CCC(C)(C)C2 31.6 µM [activator, single point]
O=S(=O)(Nc1nc2cc3c(cc2nc1Cl)OCCO3)c1ccccc1 6.31 µM [activator, single point]
O=C(C(=O)N1CCN(c2cccc(Cl)c2)CC1)c1c[nH]c2ccccc12 22.4 µM [activator, single point]
C[C@H]1COc2cccc(N3CCC[C@H]3CO)c2S(=O)(=O)N1 31.6 µM [activator, single point]
CC(=O)c1ccc(N2CCN(S(=O)(=O)c3ccc4c(c3)CC(=O)N4)CC2)cc1 5.62 µM [activator, single point]
Cc1cccc(NC(=O)CCN2C(=O)c3ccccc3C2=O)n1 35.5 µM [activator, single point]
O=C(NCC(c1cccs1)N1CCOCC1)c1cc2ccccc2oc1=O (stereo not drawn) 11.2 µM [activator, single point]
CSc1ccc(NC(=O)C2(C)CCN2C(=O)c2cc(C)n(C)n2)cc1 (stereo not drawn) 35.5 µM [activator, single point]
O=S(=O)(c1cccs1)N1CCN(c2ccc(F)cc2)CC1 10 µM [activator, partial curve]
Cc1c(N2C(=O)c3ccc(Br)cc3C2=O)c(=O)n(-c2ccccc2)n1C 35.5 µM [activator, single point]
NS(=O)(=O)c1ccc(N2N=C(c3ccccc3)CC2c2ccc(Br)cc2)cc1 (stereo not drawn) 22.4 µM [activator, single point]
C=C(C)COc1ccc2c(C)c(CC(=O)OC)c(=O)oc2c1C 5.62 µM [activator, single point]
COc1cc2c(cc1OC)C(C)N(C(=O)c1cc3c(s1)-c1ccccc1OC3)CC2 (stereo not drawn) 35.5 µM [activator, single point]
Cc1ccc(S(=O)c2ccc([N+](=O)[O-])c3nonc23)cc1 (stereo not drawn) 35.5 µM [activator, single point]
COc1ccc(OC)c(C2C3=C(N=c4s/c(=C\c5cccc(O)c5)c(=O)n42)c2ccccc2CC3)c1 (stereo not drawn) 7.08 µM [activator, partial curve]
COCCn1nnnc1C(c1cccs1)N1CCN(c2cc(C)ccc2C)CC1 (stereo not drawn) 17.8 µM [activator, single point]
Cc1cc(NC(=O)COC(=O)c2ccc(S(=O)(=O)N3CCCc4ccccc43)cc2)no1 35.5 µM [activator, single point]
CC(C)(C)Cc1c(-c2ccccc2)nc2ccc(Br)cn12 3.16 µM [activator, single point]
CC(C)CNC(=O)C1(C)CCCN1C(=O)Cc1cccc2ccccc12 (stereo not drawn) 28.2 µM [activator, single point]
NNc1nc2ccccc2nc1C(F)(F)F 35.5 µM [activator, single point]
COc1ccc(-c2csc(NC(CO)c3nc4ccccc4n3Cc3ccc(C)cc3)n2)cc1 (stereo not drawn) 35.5 µM [activator, single point]
Cc1ccccc1-n1ncc2c(SCC(=O)N3c4ccccc4CC3C)ncnc21 (stereo not drawn) 3.55 µM [activator, partial curve, poor fit]
Cc1c(C)n(CC(O)CSc2ccccc2)c2ccccc12 (stereo not drawn) 31.6 µM [activator, single point]
CO/N=C(\Cn1ncc(N2CCCC2)c(Br)c1=O)c1ccc(Cl)cc1 35.5 µM [activator, single point]
COc1ccccc1C(=O)NS(=O)(=O)c1ccc(C)cc1 12.6 µM [activator, partial curve]
COC(=O)C1=C(C)N(CC2CC2)C(=NCc2cccc(Cl)c2)N[C@H]1c1ccccc1 6.31 µM [activator, single point]
COc1ccc(Nc2nc(N)c([N+](=O)[O-])c(NC3CCCCC3)n2)cc1 35.5 µM [activator, single point]
CCc1nn(CCCC(=O)NCc2ccccc2C)c(=O)c2cc3occc3n12 25.1 µM [activator, single point]
CCN1C(=O)C(CC(=O)Nc2ccc(OC)cc2)N(CCc2ccccc2)C1=S (stereo not drawn) 28.2 µM [activator, single point]

Potency, active:
C/C=C/c1cc(OC)c2c(c1)[C@H](C)[C@@H](c1ccc(O)c(OC)c1)O2 7.94 µM
CCOC(=O)c1ccc(-n2c(CCC(=O)O)ccc2-c2cccs2)cc1 20 µM

Potency, inactive:
CC(=O)Nc1ccc(NC(=O)CSc2ccc(-c3cccnc3)nn2)cc1
CCN(CCCNc1cc2c(c(N)c1S(=O)(=O)O)C(=O)c1ccccc1C2=O)c1ccccc1
Cc1cccc2cc(C#N)c(SCC(=O)NNC(=O)Cc3ccccc3)nc12
COc1ccccc1Nc1nc2ccccc2n2cnnc12
CCc1nc2ccc(C(=O)NCCCN3CCCC3=O)cn2c1N(C)CCC(C)C
COc1ccccc1C(=O)COC(=O)c1cccc(-n2cnnn2)c1
O=C(c1cccc(Oc2ccc([N+](=O)[O-])cc2)c1)N1CCOCC1
CCCCCC(=O)c1c(C)[nH]c(C(=O)OCC)c1C
O=C(Cc1ccccc1F)Nc1ccc(SC(F)F)cc1
O=c1[nH]c(CSc2nnc(-c3ccccc3)n2-c2ccccc2)nc2ccccc12
Cc1ccc(Nc2ncnc3nc[nH]c23)cc1
COc1ccc(NC(=O)N[C@H]2C=C[C@@H](CC(=O)NC3CCC3)O[C@@H]2CO)cc1
COc1ccc(C(=O)NCCS(=O)(=O)N2CCC3(CC2)OCCO3)cc1
COc1ccc(N2C(=O)c3ccccc3NC23CCCCC3)cc1
CCOC(=O)N(O)c1ccc(C=Cc2ccccc2)cc1
O=C(NC(=S)NCc1ccncc1)c1ccccc1
COC(CNC(=O)c1c[nH]c2ccc(S(=O)(=O)N3CCOCC3)cc2c1=O)OC
Cc1ccccc1CNC(=O)c1ccccc1N
COc1ccc(/C=C/C(=O)OCC(=O)NC2CCCC2)cc1OC
CN1C(=O)C2C=CC1C1C(=O)N(c3ccccc3)C(=O)C21 (stereo not drawn)
O=S1(=O)NC2CCCCCN2c2ccc(F)cc21 (stereo not drawn)
CCCCNc1c(-c2ccc(SC3CCCCC3)c(OC)c2)nc2ccc(C)cn12
Cc1ccsc1-c1nc(CSCC(=O)N2CCN(c3ccccc3)CC2)c(C)o1
COc1cccc(-c2nc(-c3cccc(C)c3)nc3cc(Cl)ccc23)c1
O=C(CSCc1ccccc1)N=Nc1c(O)[nH]c2ccccc12
COc1ccc2c(c1)c(C(C)=O)c(C)n2CCc1ccc(OC)c(OC)c1
O=S(=O)(c1ccccc1)N1N=C(c2cccs2)CC1c1ccc(Br)cc1 (stereo not drawn)
CCCCn1c(CNC(=O)c2cccs2)nc2ccccc21

Growth rescue (activation), inconclusive:
O=C(CCN1CCCCC1)c1ccc2c(c1)OCCO2 -73.9% [activator]
O=[N+]([O-])c1cc(Cl)cc(/C=N\Nc2ccccn2)c1O -50.3% [activator]
